The list shows a part of the results.
T1: UNK ZnF1-3 (human, UniProt Q9C0B0 31-174)
T1 sequence: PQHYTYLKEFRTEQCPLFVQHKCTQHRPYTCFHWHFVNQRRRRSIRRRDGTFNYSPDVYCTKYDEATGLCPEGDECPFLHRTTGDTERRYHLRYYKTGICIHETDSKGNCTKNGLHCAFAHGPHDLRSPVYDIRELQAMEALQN

B1: 23631571_23631691_891_3pUTR_ENSG00000182247_ENST00000335798|human|control|control (ssRNA)
RNA: GGGAGUUCUACAGUCCGACGAUCACAACAAAAAAAACAAAACCACACAGUAAUACAAAGCUUUGUAAGAAAGCUCUUACUAUUACAGCUCCAACAUUGUUUGCACUGAAAACAAAAGUUCCCAUCUAUGAUGAGGUGGGAAAACAACAGAGGAUUGAGCAUCA
B2: chr11:100882373:100882374:+_ENSMUSG00000019302_ENSMUST00000044721|mus_mus|mus_mus_mus_hu_True|38_38 (ssRNA)
RNA: GGGAGUUCUACAGUCCGACGAUCUUCCUGGUUUGUGUUGAUUUCCUUCAGUUCAUUUUCAAUCUUCUCAAAAUUGGCCUCUAAGUCAAUCAUGUCCCGAGGGAAGGGAACCUCUGGGUUUUCACCGGUGUCCAUAAUCGGAAUCAACAGAGGAUUGAGCAUCA
B3: chr8:95500983:95500984:-_ENSG00000164944_ENST00000437199|hu_hu|hu_hu_hu_mus_True|28_78 (ssRNA)
RNA: GGGAGUUCUACAGUCCGACGAUCAGAACACAUCUAUCGAGUAAAGGACCGUACAUGGACGACCUCUCCACUGCCUCCACUAACAAACUUUCCUCUCGAGCCUCCACCUGCCGCUAUUGUACUAGCCCAGGACGGUCCCAGGCCCAACAGAGGAUUGAGCAUCA
B4: 18846305_18846425_8591_CDS_ENSG00000157106_ENST00000446231|human|control|control (ssRNA)
RNA: GGGAGUUCUACAGUCCGACGAUCUUCAAUUUCUUUCAACUGAUCUUCACAAACUGGCACAGUGACAGCUUCCUGUUUCAAGCGUUCCACUUGUCUAAUAAGUCUGCUGUUGAUGUCUGCUGCGUAUCGCUGCAGGGUCAUUUCCAACAGAGGAUUGAGCAUCA
B5: chr2:5814250:5814251:-_ENSMUSG00000025816_ENSMUST00000102981|mus_hu|mus_mus_mus_hu_True|38_38 (ssRNA)
RNA: GGGAGUUCUACAGUCCGACGAUCUUCCUUUCCGGUUUCUGAAUUUCUGGUAGAACUGCACAGAAUGGUUUGAUAACUUCUAAAAAUUUGAUGCCCAUGGCGGCGGCUGGGGAGGCCCAGGGGGAAACCGCGGCCUCGGCGCUGCAACAGAGGAUUGAGCAUCA
B6: 58038583_58038703_312_CDS_ENSMUSG00000024597_ENSMUST00000115366|mouse|control|control (ssRNA)
RNA: GGGAGUUCUACAGUCCGACGAUCCACCUGGAAGCGGCUCUGGCUGGGGGUGGGCCCCAGAGGUCUGCCCAGCCCAUCGCCCGCCGCUGGGGUUCCCUCUCCGCGCACCCCGCCGCCAGCCUGCCUCCCAGCCGUAGUAGCAUCCAACAGAGGAUUGAGCAUCA
B7: chr7:135612270:135612271:-_ENSG00000105887_ENST00000393085|hu_mus|hu_hu_hu_mus_False|8_8 (ssRNA)
RNA: GGGAGUUCUACAGUCCGACGAUCGUUUUUUUCUGAGAUGUUAAAUAGUACUUCAGUGGAAAACAAAACUUAACCUUUUAUUAAUGCGUGUUGUACCAAAAGCAGACAUUUUAGCUUCAUUUAUUCACUCAAAAUAUCAUUAAGCAACAGAGGAUUGAGCAUCA
B8: chr1:163116941:163116942:-_ENSG00000143248_ENST00000313961|hu_hu|FALSE|FALSE (ssRNA)
RNA: GGGAGUUCUACAGUCCGACGAUCUACAAGCUGAAGAUAUCUUAAUUAAUAACAGGGCAGGAAGAAUUGAGUGGGGAAAGAAGGCCUUCGGACAGUAGAUAAGUAUCCAAAGCAGUGUGGGCAAAAAGAGUAAGCAACAUCCCCCAACAGAGGAUUGAGCAUCA
B9: chr5:102612083:102612084:+_ENSG00000181751_ENST00000319933|hu_hu|FALSE|FALSE (ssRNA)
RNA: GGGAGUUCUACAGUCCGACGAUCUAGAUUGAGGUAGUCCAGAGAUUUGGAGUGAGCCCUCUUACCUUUAAGAAGACAAAGAGGCAGAGGCCCAUGGAGGGCCUUGUAAGGUUCAUAAGGUAAAGAUUUAGUGCACUUGUCUCCCAACAGAGGAUUGAGCAUCA
B10: chr1:82725849:82725850:+_ENSMUSG00000026150_ENSMUST00000078332|mus_mus|motif|central (ssRNA)
RNA: GGGAGUUCUACAGUCCGACGAUCGGACCCUCAUUCGCUGACUAAUACCUUCGGUGUAUUCCAUUUCAUACUGAAUUCGACGGAUUUCUGCCAUCUCAGCAGCAGUGGGAGAAGGAAAUGCUGCCCCACUCACCAAAUGUGAAACAACAGAGGAUUGAGCAUCA
B11: 120566793_120566913_4174_3pUTR_ENSMUSG00000032890_ENSMUST00000071093|mouse|control|control (ssRNA)
RNA: GGGAGUUCUACAGUCCGACGAUCCUGCUGAAGAGGUGAUGUUCAGAGUCUGGUGAGCUGAGAGGCAAGAUGAGAGCGCCUCUGGAGCCGGUUCCUCCCCAAAGGAUCAAAUGUCCCUGUCAAACCAAGACUUGGCCCAUUUCCCAACAGAGGAUUGAGCAUCA
B12: chr1:163115838:163115839:-_ENSG00000143248_ENST00000313961|hu_hu|motif|central (ssRNA)
RNA: GGGAGUUCUACAGUCCGACGAUCUGGCUUAGUUUGAUUCUGUUACUAAAUUCUGUGAAUCAUUAUUUAAUCAAAUCGGCGGAAGAUUAGAAAAAAUUCUAGCAAGACUUAUAAUCAUGAAAUACAGAAUUAAAAGUUUAAACCCAACAGAGGAUUGAGCAUCA
B13: chr7:97836282:97836283:+_ENSG00000164715_ENST00000297293|hu_hu|motif|central (ssRNA)
RNA: GGGAGUUCUACAGUCCGACGAUCAGGGAGGGAGGUGUGAGGUCGCCCAUGACCACAGGGGCUCGUGACGAUGUGACGAAGCGGCACUGGGAGCACUCGGGCCCUUUCAAAGCCAGAAGAGAACCUGGGGCUUAAUGCAGAACGCAACAGAGGAUUGAGCAUCA
B14: chr8:117878989:117878990:-_ENSG00000164754_ENST00000297338|hu_hu|hu_hu_hu_mus_True|48_68 (ssRNA)
RNA: GGGAGUUCUACAGUCCGACGAUCCCAGAGGCCCUCGUUUACUGAGGACAAAAUGUGCGUAGAACAUUGUUCUGGCUUGCUAUGAAAACAGAAGAAACCUGGAUCUCGGCGGGGAGCCGGGAGGGGUGGGUGGCCCGGGGAGGGCAACAGAGGAUUGAGCAUCA
B15: chr19:47656230:47656231:+_ENSG00000142230_ENST00000270225|hu_hu|FALSE|FALSE (ssRNA)
RNA: GGGAGUUCUACAGUCCGACGAUCUAGAUUGGCAAAUGUGUAUCCAUGGUAGCCAAAAACAUCUCCUGUAAAGAACUUGAUGCUAUUUUUGUGACAGAUCUGGUCAACUUUAACUAUGACAUCCCUGGAGCAGCAAGUCAGACACAACAGAGGAUUGAGCAUCA
B16: chr3:10015032:10015033:+_ENSMUSG00000027533_ENSMUST00000029046|mus_mus|mus_mus_mus_hu_True|78_78 (ssRNA)
RNA: GGGAGUUCUACAGUCCGACGAUCGUUUUUACCAUCACAAGUGAUGAUACAAUCUGGCUUGGCCAUGGCGCCCAUUUUUCGCAAAGCUAUUCCCACUCCUAGCUCCUUCAUGUAUUCAUCAAAGCCUUUGCUGUCCACCAGGCGCAACAGAGGAUUGAGCAUCA
B17: chr13:51516861:51516862:+_ENSMUSG00000067586_ENSMUST00000087978|mus_mus|motif|central (ssRNA)
RNA: GGGAGUUCUACAGUCCGACGAUCCUUGGUGACAUAGAGAAGGGCAAGGCCAAUGAUGGAGCAGAACUUCUUGGCAGUGACCGGUAUACACCAGGAGUGACAUGAGGGGAAGUCUUUAGUUAGUCAGACCAGGGUUACCUAAGGCAACAGAGGAUUGAGCAUCA
B18: chr2:91395433:91395434:+_ENSMUSG00000040549_ENSMUST00000099716|mus_hu|motif|central (ssRNA)
RNA: GGGAGUUCUACAGUCCGACGAUCUGGCUUAAGCAAGAUGAUUUUGGAACCAAAUUCACUUAAGGCUUUCCUCAGUGUCUCGGUACAGGCCACUAUGAUCUUGGGAUUCUUAUUGUCCAAGCCUUUCAGGAGCUCUUCUUGAACCAACAGAGGAUUGAGCAUCA
B19: 37392173_37396547_463_3pUTR_ENSG00000082068_ENST00000265107|human|control|control (ssRNA)
RNA: GGGAGUUCUACAGUCCGACGAUCGUAAAGGAGGGCCAAUUAACUCAUCAUCAGAAGAGUCAGAACUCUGUUCACUUUCACUGCUGCUCGUAUCCCUGGAAGAUGAUUUGGAGCAAUCUCUGACCACAUUUGAUCUUGAGGAUGCAACAGAGGAUUGAGCAUCA
B20: 92123618_92123828_3054_CDS_ENSG00000127980_ENST00000248633|human|control|control (ssRNA)
RNA: GGGAGUUCUACAGUCCGACGAUCAGGACAGUAUACACAUUUAUCUAGUCGACCAGGCCUAAGCAGGGCAGGGUCAAUCAAGUCAGGGCGACUAGUAGCAGCCAAUACAUAAACACCCUGUAAGCCUUCUACUCCAUCCAACUGCAACAGAGGAUUGAGCAUCA
B21: chr1:58468927:58468928:-_ENSMUSG00000026034_ENSMUST00000148330|mus_mus|mus_mus_mus_hu_False|48_108 (ssRNA)
RNA: GGGAGUUCUACAGUCCGACGAUCAAUCUAUAAUUACGAUGUUCAUUACCUUAGCUAUGUACUUAAUGAACCAAAUUACCCAAACAACAUAAAAUGUGCAAUAUAAAAAUGUUAAGAAUUUACAAAGCUGUACAAAAUAACUUACAACAGAGGAUUGAGCAUCA
B22: chr7:130122267:130122268:+_ENSMUSG00000030779_ENSMUST00000098062|mus_mus|FALSE|FALSE (ssRNA)
RNA: GGGAGUUCUACAGUCCGACGAUCAUUUAUAUCCAUAUUCAACUGAACUGUCAUCAAAAUACAAUUUAUUUACAGUGGGUGCUAUGGUCAGUGGGUAUUCUAAGUGAGUUACGUCACUGAAACAUUAUAAAGGUAAAAGCAAUUCAACAGAGGAUUGAGCAUCA

target: T1, UNK ZnF1-3; test: nsRBNS (natural sequence RNA bind-n-seq); RBNS binding buffer (assumed for nsRBNS): 25 mM Tris pH 7.5, 150 mM KCl, 3 mM MgCl2, 0.01% Triton X-100, 500 ug/ml BSA, 20 U/ml SUPERase-In, 4 C; UNK is unkempt and MSI1 is Musashi-1; names of the RNAs are library labels; protein concentration not given here; high values mean tight binding

Binder	binding signal
B1	0.612 enrichment R
B2	0.542 enrichment R
B3	1.38 enrichment R
B4	0.47 enrichment R
B5	1.06 enrichment R
B6	1.13 enrichment R
B7	0.523 enrichment R
B8	2.84 enrichment R
B9	1.61 enrichment R
B10	0.919 enrichment R
B11	1.59 enrichment R
B12	1.14 enrichment R
B13	1.34 enrichment R
B14	1.56 enrichment R
B15	1.07 enrichment R
B16	0.827 enrichment R
B17	1.34 enrichment R
B18	0.948 enrichment R
B19	1.16 enrichment R
B20	0.803 enrichment R
B21	0.859 enrichment R
B22	1.75 enrichment R

From article PMC12136788
